Data as given in the supplement of paper PMC8728848.
Some of the results follow.

Assays:
Assay in all cases: glycan array binding signal (z-score within array); higher = stronger binding
Details in all cases: glycan notation: IUPAC condensed, linker removed
[1] = target: Glc(b1-6)Glc
In short: (§1)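 Glycan array data came from 3228 arrays in the Consortium for Functional Glycomics database, and only arrays with an available protein sequence were kept. Glycan names were put into IUPAC-condensed notation, and columns mapping to the same glycan were averaged. The binding signal is a within-array Z-score, averaged across arrays of one protein sequence run at different concentrations or buffers and across linkers. A negative Z-score can be read as non-binding.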

[2] = target: GlcA(b1-3)Gal
In short: as §1

[3] = target: GlcA(b1-3)GlcNAc
In short: as §1

[4] = target: GlcA(b1-6)Gal
In short: as §1

[5] = target: GlcA3S(b1-3)Gal(b1-4)GlcNAc(b1-2)Man
In short: as §1

[6] = target: GlcA3S(b1-3)Gal(b1-4)GlcNAc(b1-3)Gal(b1-4)Glc
In short: as §1

[7] = target: GlcNAc(a1-3)Gal(b1-4)GlcNAc
In short: as §1

[8] = target: GlcNAc(a1-4)Gal(b1-3)GlcNAc
In short: as §1

[9] = target: GlcNAc(a1-4)Gal(b1-4)GalNAc
In short: as §1

[10] = target: GlcNAc(a1-4)Gal(b1-4)GlcNAc
In short: as §1

[11] = target: GlcNAc(a1-4)Gal(b1-4)GlcNAc(b1-3)Gal(b1-4)Glc
In short: as §1

[12] = target: GlcNAc(a1-4)Gal(b1-4)GlcNAc(b1-3)Gal(b1-4)GlcNAc
In short: as §1

[13] = target: GlcNAc(a1-4)Gal(b1-4)GlcNAc(b1-3)Gal(b1-4)GlcNAc(b1-3)Gal(b1-4)GlcNAc
In short: as §1

[14] = target: GlcNAc(a1-4)Gal(b1-4)GlcNAc(b1-3)Gal(b1-4)[Fuc(a1-3)]GlcNAc(b1-3)Gal(b1-4)[Fuc(a1-3)]GlcNAc
In short: as §1

[15] = target: GlcNAc(a1-6)Gal(b1-4)GlcNAc
In short: as §1

[16] = target: GlcNAc(b1-2)Gal(b1-3)GalNAc
In short: as §1

[17] = target: GlcNAc(b1-2)Man(a1-3)[GlcNAc(b1-2)Man(a1-6)]Man(b1-4)GlcNAc(b1-4)GlcNAc
In short: as §1

[18] = target: GlcNAc(b1-2)Man(a1-3)[GlcNAc(b1-2)Man(a1-6)]Man(b1-4)GlcNAc(b1-4)[Fuc(a1-6)]GlcNAc
In short: as §1

[19] = target: GlcNAc(b1-2)Man(a1-3)[GlcNAc(b1-4)][GlcNAc(b1-2)Man(a1-6)]Man(b1-4)GlcNAc(b1-4)GlcNAc
In short: as §1

[20] = target: GlcNAc(b1-2)Man(a1-3)[GlcNAc(b1-4)][GlcNAc(b1-2)Man(a1-6)]Man(b1-4)GlcNAc(b1-4)[Fuc(a1-6)]GlcNAc
In short: as §1

[21] = target: GlcNAc(b1-2)[GlcNAc(b1-4)]Man(a1-3)[GlcNAc(b1-2)Man(a1-6)]Man(b1-4)GlcNAc(b1-4)GlcNAc
In short: as §1

[22] = target: GlcNAc(b1-2)[GlcNAc(b1-4)]Man(a1-3)[GlcNAc(b1-4)][GlcNAc(b1-2)Man(a1-6)]Man(b1-4)GlcNAc(b1-4)GlcNAc
In short: as §1

[23] = target: GlcNAc(b1-2)[GlcNAc(b1-4)]Man(a1-3)[GlcNAc(b1-4)][GlcNAc(b1-2)[GlcNAc(b1-6)]Man(a1-6)]Man(b1-4)GlcNAc(b1-4)GlcNAc
In short: as §1

[24] = target: GlcNAc(b1-2)[GlcNAc(b1-4)]Man(a1-3)[GlcNAc(b1-4)][GlcNAc(b1-2)[GlcNAc(b1-6)]Man(a1-6)]Man(b1-4)GlcNAc(b1-4)[Fuc(a1-6)]GlcNAc
In short: as §1

[25] = target: GlcNAc(b1-2)[GlcNAc(b1-6)]Man(a1-6)[GlcNAc(b1-2)Man(a1-3)]Man(b1-4)GlcNAc(b1-4)GlcNAc
In short: as §1

[26] = target: GlcNAc(b1-2)[GlcNAc(b1-6)]Man(a1-6)[GlcNAc(b1-2)Man(a1-3)]Man(b1-4)GlcNAc(b1-4)[Fuc(a1-6)]GlcNAc
In short: as §1

[27] = target: GlcNAc(b1-2)[GlcNAc(b1-6)]Man(a1-6)[GlcNAc(b1-4)][GlcNAc(b1-2)Man(a1-3)]Man(b1-4)GlcNAc(b1-4)GlcNAc
In short: as §1

[28] = target: GlcNAc(b1-3)Fuc
In short: as §1

[29] = target: GlcNAc(b1-3)Gal
In short: as §1

[30] = target: GlcNAc(b1-3)Gal(b1-3)GalNAc
In short: as §1

[31] = target: GlcNAc(b1-3)Gal(b1-4)Glc
In short: as §1

[32] = target: GlcNAc(b1-3)Gal(b1-4)GlcNAc
In short: as §1

[33] = target: GlcNAc(b1-3)Gal(b1-4)GlcNAc(b1-2)Man(a1-3)[GlcNAc(b1-3)Gal(b1-4)GlcNAc(b1-2)Man(a1-6)]Man(b1-4)GlcNAc(b1-4)GlcNAc
In short: as §1

[34] = target: GlcNAc(b1-3)Gal(b1-4)GlcNAc(b1-2)Man(a1-3)[GlcNAc(b1-3)Gal(b1-4)GlcNAc(b1-2)Man(a1-6)]Man(b1-4)GlcNAc(b1-4)[Fuc(a1-6)]GlcNAc
In short: as §1

[35] = target: GlcNAc(b1-3)Gal(b1-4)GlcNAc(b1-2)[GlcNAc(b1-3)Gal(b1-4)GlcNAc(b1-6)]Man(a1-6)[GlcNAc(b1-3)Gal(b1-4)GlcNAc(b1-2)Man(a1-3)]Man(b1-4)GlcNAc(b1-4)GlcNAc
In short: as §1

[36] = target: GlcNAc(b1-3)Gal(b1-4)GlcNAc(b1-3)Gal(b1-4)GlcNAc
In short: as §1

[37] = target: GlcNAc(b1-3)Gal(b1-4)GlcNAc(b1-3)Gal(b1-4)GlcNAc(b1-2)Man(a1-3)[GlcNAc(b1-3)Gal(b1-4)GlcNAc(b1-3)Gal(b1-4)GlcNAc(b1-2)Man(a1-6)]Man(b1-4)GlcNAc(b1-4)GlcNAc
In short: as §1

[38] = target: GlcNAc(b1-3)Gal(b1-4)GlcNAc(b1-3)Gal(b1-4)GlcNAc(b1-2)Man(a1-3)[GlcNAc(b1-3)Gal(b1-4)GlcNAc(b1-3)Gal(b1-4)GlcNAc(b1-2)Man(a1-6)]Man(b1-4)GlcNAc(b1-4)[Fuc(a1-6)]GlcNAc
In short: as §1

[39] = target: GlcNAc(b1-3)Gal(b1-4)GlcNAc(b1-3)Gal(b1-4)GlcNAc(b1-2)[GlcNAc(b1-3)Gal(b1-4)GlcNAc(b1-3)Gal(b1-4)GlcNAc(b1-6)]Man(a1-6)[GlcNAc(b1-3)Gal(b1-4)GlcNAc(b1-3)Gal(b1-4)GlcNAc(b1-2)Man(a1-3)]Man(b1-4)GlcNAc(b1-4)[Fuc(a1-6)]GlcNAc
In short: as §1

[40] = target: GlcNAc(b1-3)Gal(b1-4)GlcNAc(b1-3)Gal(b1-4)GlcNAc(b1-3)Gal(b1-4)GlcNAc(b1-2)Man(a1-3)[GlcNAc(b1-3)Gal(b1-4)GlcNAc(b1-3)Gal(b1-4)GlcNAc(b1-3)Gal(b1-4)GlcNAc(b1-2)Man(a1-6)]Man(b1-4)GlcNAc(b1-4)GlcNAc
In short: as §1

[41] = target: GlcNAc(b1-3)Gal(b1-4)GlcNAc(b1-3)Gal(b1-4)GlcNAc(b1-3)Gal(b1-4)GlcNAc(b1-2)Man(a1-3)[GlcNAc(b1-3)Gal(b1-4)GlcNAc(b1-3)Gal(b1-4)GlcNAc(b1-3)Gal(b1-4)GlcNAc(b1-2)Man(a1-6)]Man(b1-4)GlcNAc(b1-4)[Fuc(a1-6)]GlcNAc
In short: as §1

[42] = target: GlcNAc(b1-3)Gal(b1-4)GlcNAc(b1-3)Gal(b1-4)GlcNAc(b1-3)Gal(b1-4)GlcNAc(b1-2)[GlcNAc(b1-3)Gal(b1-4)GlcNAc(b1-3)Gal(b1-4)GlcNAc(b1-3)Gal(b1-4)GlcNAc(b1-6)]Man(a1-6)[GlcNAc(b1-3)Gal(b1-4)GlcNAc(b1-3)Gal(b1-4)GlcNAc(b1-3)Gal(b1-4)GlcNAc(b1-2)Man(a1-3)]Man(b1-4)GlcNAc(b1-4)[Fuc(a1-6)]GlcNAc
In short: as §1

[43] = target: GlcNAc(b1-3)Gal(b1-4)GlcNAc(b1-3)Gal(b1-4)GlcNAc(b1-3)Gal(b1-4)GlcNAc(b1-3)Gal(b1-4)GlcNAc(b1-2)Man(a1-3)[GlcNAc(b1-3)Gal(b1-4)GlcNAc(b1-3)Gal(b1-4)GlcNAc(b1-3)Gal(b1-4)GlcNAc(b1-3)Gal(b1-4)GlcNAc(b1-2)Man(a1-6)]Man(b1-4)GlcNAc(b1-4)GlcNAc
In short: as §1

[44] = target: GlcNAc(b1-3)Gal(b1-4)GlcNAc(b1-3)Gal(b1-4)GlcNAc(b1-3)Gal(b1-4)GlcNAc(b1-3)Gal(b1-4)GlcNAc(b1-2)Man(a1-3)[GlcNAc(b1-3)Gal(b1-4)GlcNAc(b1-3)Gal(b1-4)GlcNAc(b1-3)Gal(b1-4)GlcNAc(b1-3)Gal(b1-4)GlcNAc(b1-2)Man(a1-6)]Man(b1-4)GlcNAc(b1-4)[Fuc(a1-6)]GlcNAc
In short: as §1

[45] = target: GlcNAc(b1-3)Gal(b1-4)GlcNAc(b1-3)Gal(b1-4)GlcNAc(b1-3)Gal(b1-4)GlcNAc(b1-3)Gal(b1-4)GlcNAc(b1-2)[GlcNAc(b1-3)Gal(b1-4)GlcNAc(b1-3)Gal(b1-4)GlcNAc(b1-3)Gal(b1-4)GlcNAc(b1-3)Gal(b1-4)GlcNAc(b1-6)]Man(a1-6)[GlcNAc(b1-3)Gal(b1-4)GlcNAc(b1-3)Gal(b1-4)GlcNAc(b1-3)Gal(b1-4)GlcNAc(b1-3)Gal(b1-4)GlcNAc(b1-2)Man(a1-3)]Man(b1-4)GlcNAc(b1-4)[Fuc(a1-6)]GlcNAc
In short: as §1

B1: AAL (Agrocybe aegerita), Q6WY08 (protein)
chain: MQGVNIYNISAGTSVDLAAPVTTGDIVTFFSSALNLNAGAGNPNNTTLNLFAENGAYLLHIAFRLQENVIIFNSRQPDGPWLVEQRVSDVANQFAGIDGKAMVTVFDHGDKYQVVINEKTVIQYTKQISGLTLSLSYNATEETSIFSTVVEAVTYTGLALEHHHHHH
glycan array binding signal (z-score) [1]: -0.138
glycan array binding signal (z-score) [2]: -0.161
glycan array binding signal (z-score) [3]: -0.151
glycan array binding signal (z-score) [4]: -0.15
glycan array binding signal (z-score) [5]: 6.26
glycan array binding signal (z-score) [6]: 10.9
glycan array binding signal (z-score) [7]: -0.136
glycan array binding signal (z-score) [8]: -0.157
glycan array binding signal (z-score) [9]: -0.152
glycan array binding signal (z-score) [10]: -0.114
glycan array binding signal (z-score) [11]: -0.161
glycan array binding signal (z-score) [12]: -0.154
glycan array binding signal (z-score) [13]: -0.146
glycan array binding signal (z-score) [14]: -0.1
glycan array binding signal (z-score) [15]: -0.133
glycan array binding signal (z-score) [16]: -0.152
glycan array binding signal (z-score) [17]: -0.144
glycan array binding signal (z-score) [18]: -0.152
glycan array binding signal (z-score) [19]: -0.151
glycan array binding signal (z-score) [20]: -0.151
glycan array binding signal (z-score) [21]: -0.141
glycan array binding signal (z-score) [22]: -0.14
glycan array binding signal (z-score) [23]: -0.12
glycan array binding signal (z-score) [24]: -0.159
glycan array binding signal (z-score) [25]: -0.159
glycan array binding signal (z-score) [26]: -0.106
glycan array binding signal (z-score) [27]: -0.163
glycan array binding signal (z-score) [28]: -0.145
glycan array binding signal (z-score) [29]: -0.154
glycan array binding signal (z-score) [30]: -0.139
glycan array binding signal (z-score) [31]: -0.152
glycan array binding signal (z-score) [32]: -0.139
glycan array binding signal (z-score) [33]: -0.126
glycan array binding signal (z-score) [34]: -0.118
glycan array binding signal (z-score) [35]: -0.091
glycan array binding signal (z-score) [36]: -0.164
glycan array binding signal (z-score) [37]: -0.13
glycan array binding signal (z-score) [38]: -0.094
glycan array binding signal (z-score) [39]: -0.128
glycan array binding signal (z-score) [40]: -0.127
glycan array binding signal (z-score) [41]: -0.085
glycan array binding signal (z-score) [42]: -0.05
glycan array binding signal (z-score) [43]: -0.085
glycan array binding signal (z-score) [44]: -0.141
glycan array binding signal (z-score) [45]: -0.114
